In the supplement of paper PMC10369915 one finds enrichment score data, which are given here for 19 molecules.

The other results are listed elsewhere or left out. No stated cut-off is given here; in the data, active = 3.2 or more and inactive = the rest. The signal is at background level for most entries.
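Further: displayed peptides selected on beads carrying the immobilized SH2 domain, with library peptides lacking any tyrosine serving as negative controls.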

The first assay has as its target SHP2 C-SH2 domain E139D. The assay is described as follows: enrichment score (SH2-bound / input frequency) (ratio); bacterial display of known human phosphotyrosine sites (pTyr-Var adds point mutants) read by sequencing; higher = stronger binding; tyrosines were phosphorylated by kinases first. The following applies: peptide library: pTyr-Var.
For STKELYEKYMI [TTN_Y32175], the enrichment score was inactive: 0.868.

For AVVEPYNSILT [TUBA1A_Y185], the enrichment score is inactive: 0.978.

With LLKAGYQGVLR [TTPA_Y100_H101Q], the enrichment score is inactive: 0.879.

For the molecule ACCLLYCGDVV [TUBA4A_Y319_R320C], the enrichment score was inactive: 1.11.

EEGEEYGGGGG [TUBA1A_Y451]: the enrichment score is inactive: 0.58.

Turning to AGREIYESDKC [TTN_Y4424], the enrichment score is inactive: 0.636.

On to KFDLMYAKLAF [TUBA1A_Y399_R402L], for which the enrichment score was inactive: 2.62.

As for LLKAGYHGVLR [TTPA_Y100], the enrichment score was inactive: 1.51.

As to ENAGFYFRVSA [TTN_Y31722_YF], the enrichment score is inactive: 0.545.

As to ENAGFYFRISA [TTN_Y31722_V31725I_YF], the enrichment score is inactive: 0.372.

TRNREYDDIDD [TTYH2_Y424_D423E]: the enrichment score was inactive: 0.215.

With SAEKAYHEQLS [TUBA1A_Y282], the enrichment score is inactive: 0.622.

As to SGPRCYTIAAL [TTR_Y125_R124C], the enrichment score is inactive: 0.879.

As to TRNRDYDDIDD [TTYH2_Y424], the enrichment score was inactive: 0.274.

In the case of AGREIYESEKC [TTN_Y4424_D4427E], the enrichment score is inactive: 0.575.

As to SGPRRYTIAAL [TTR_Y125], the enrichment score was inactive: 0.489.

As to ACCLLYRGDVV [TUBA4A_Y319], the enrichment score is inactive: 1.51.

As to SGRRRYTIAAL [TTR_Y125_P122R], the enrichment score was inactive: 0.191.

RLSVDYGKKSK [TUBA3E_Y161_S162G]: the enrichment score was inactive: 0.853.

A further assay has as its target SHP2 C-SH2 domain wild-type. The assay is described as above. Conditions: peptide library: pTyr-Var.
With STKELYEKYMI [TTN_Y32175], the enrichment score is inactive: 0.786.

Regarding AVVEPYNSILT [TUBA1A_Y185], the enrichment score is inactive: 0.753.

With LLKAGYQGVLR [TTPA_Y100_H101Q], the enrichment score is inactive: 1.14.

In the case of ACCLLYCGDVV [TUBA4A_Y319_R320C], the enrichment score is inactive: 1.21.

Take EEGEEYGGGGG [TUBA1A_Y451]: the enrichment score is inactive: 0.371.

Turning to AGREIYESDKC [TTN_Y4424], the enrichment score is inactive: 0.612.

As for KFDLMYAKLAF [TUBA1A_Y399_R402L], the enrichment score is active: 3.97.

For the molecule LLKAGYHGVLR [TTPA_Y100], the enrichment score was inactive: 1.2.

As to ENAGFYFRVSA [TTN_Y31722_YF], the enrichment score is inactive: 0.685.

In the case of ENAGFYFRISA [TTN_Y31722_V31725I_YF], the enrichment score is inactive: 0.706.

For TRNREYDDIDD [TTYH2_Y424_D423E], the enrichment score is inactive: 0.244.

As for SAEKAYHEQLS [TUBA1A_Y282], the enrichment score was inactive: 0.697.

Regarding SGPRCYTIAAL [TTR_Y125_R124C], the enrichment score is inactive: 0.995.

Turning to TRNRDYDDIDD [TTYH2_Y424], the enrichment score was inactive: 0.212.

As for AGREIYESEKC [TTN_Y4424_D4427E], the enrichment score was inactive: 0.643.

Turning to SGPRRYTIAAL [TTR_Y125], the enrichment score is inactive: 0.379.

For the molecule ACCLLYRGDVV [TUBA4A_Y319], the enrichment score was inactive: 1.18.

As to SGRRRYTIAAL [TTR_Y125_P122R], the enrichment score was inactive: 0.242.

On to RLSVDYGKKSK [TUBA3E_Y161_S162G], for which the enrichment score is inactive: 0.916.

Another assay has as its target SHP2 N-SH2 domain L43F. Described as above. Conditions: peptide library: pTyr-Var.
Take STKELYEKYMI [TTN_Y32175]: the enrichment score is inactive: 0.724.

With AVVEPYNSILT [TUBA1A_Y185], the enrichment score is inactive: 0.789.

In the case of LLKAGYQGVLR [TTPA_Y100_H101Q], the enrichment score is inactive: 1.3.

As for ACCLLYCGDVV [TUBA4A_Y319_R320C], the enrichment score is inactive: 1.03.

Regarding EEGEEYGGGGG [TUBA1A_Y451], the enrichment score is inactive: 0.416.

AGREIYESDKC [TTN_Y4424]: the enrichment score was inactive: 0.711.

KFDLMYAKLAF [TUBA1A_Y399_R402L]: the enrichment score is active: 11.3.

With LLKAGYHGVLR [TTPA_Y100], the enrichment score was inactive: 1.33.

On to ENAGFYFRVSA [TTN_Y31722_YF], for which the enrichment score was inactive: 0.602.

Take ENAGFYFRISA [TTN_Y31722_V31725I_YF]: the enrichment score is inactive: 0.64.

With TRNREYDDIDD [TTYH2_Y424_D423E], the enrichment score was inactive: 0.261.

For the molecule SAEKAYHEQLS [TUBA1A_Y282], the enrichment score was inactive: 0.792.

On to SGPRCYTIAAL [TTR_Y125_R124C], for which the enrichment score is inactive: 1.11.

Consider TRNRDYDDIDD [TTYH2_Y424], for which the enrichment score is inactive: 0.206.

For AGREIYESEKC [TTN_Y4424_D4427E], the enrichment score was inactive: 0.552.

As to SGPRRYTIAAL [TTR_Y125], the enrichment score was inactive: 0.385.

Consider ACCLLYRGDVV [TUBA4A_Y319], for which the enrichment score is inactive: 1.26.

As to SGRRRYTIAAL [TTR_Y125_P122R], the enrichment score was inactive: 0.263.

Turning to RLSVDYGKKSK [TUBA3E_Y161_S162G], the enrichment score was inactive: 0.764.

The target of another assay is SHP2 N-SH2 domain T42A. The description is as above. The following applies: peptide library: pTyr-Var.
Take STKELYEKYMI [TTN_Y32175]: the enrichment score is inactive: 0.768.

With AVVEPYNSILT [TUBA1A_Y185], the enrichment score was inactive: 0.599.

Regarding LLKAGYQGVLR [TTPA_Y100_H101Q], the enrichment score was inactive: 0.947.

ACCLLYCGDVV [TUBA4A_Y319_R320C]: the enrichment score is inactive: 0.76.

For EEGEEYGGGGG [TUBA1A_Y451], the enrichment score was inactive: 0.475.

Regarding AGREIYESDKC [TTN_Y4424], the enrichment score is inactive: 0.679.

With KFDLMYAKLAF [TUBA1A_Y399_R402L], the enrichment score was active: 12.7.

In the case of LLKAGYHGVLR [TTPA_Y100], the enrichment score was inactive: 1.11.

Take ENAGFYFRVSA [TTN_Y31722_YF]: the enrichment score was inactive: 0.602.

As to ENAGFYFRISA [TTN_Y31722_V31725I_YF], the enrichment score is inactive: 0.692.

As to TRNREYDDIDD [TTYH2_Y424_D423E], the enrichment score is inactive: 0.178.

Regarding SAEKAYHEQLS [TUBA1A_Y282], the enrichment score is inactive: 0.611.

Take SGPRCYTIAAL [TTR_Y125_R124C]: the enrichment score was inactive: 0.871.

Consider TRNRDYDDIDD [TTYH2_Y424], for which the enrichment score is inactive: 0.175.

For AGREIYESEKC [TTN_Y4424_D4427E], the enrichment score was inactive: 0.563.

Consider SGPRRYTIAAL [TTR_Y125], for which the enrichment score was inactive: 0.406.

In the case of ACCLLYRGDVV [TUBA4A_Y319], the enrichment score is inactive: 1.17.

In the case of SGRRRYTIAAL [TTR_Y125_P122R], the enrichment score was inactive: 0.221.

RLSVDYGKKSK [TUBA3E_Y161_S162G]: the enrichment score is inactive: 0.724.

The next assay concerns the target SHP2 N-SH2 domain T52S. Described as above. Conditions: peptide library: pTyr-Var.
On to STKELYEKYMI [TTN_Y32175], for which the enrichment score is inactive: 0.798.

For the molecule AVVEPYNSILT [TUBA1A_Y185], the enrichment score was inactive: 0.961.

Consider LLKAGYQGVLR [TTPA_Y100_H101Q], for which the enrichment score is inactive: 0.958.

Consider ACCLLYCGDVV [TUBA4A_Y319_R320C], for which the enrichment score is inactive: 1.03.

For the molecule EEGEEYGGGGG [TUBA1A_Y451], the enrichment score is inactive: 0.505.

Take AGREIYESDKC [TTN_Y4424]: the enrichment score is inactive: 0.686.

With KFDLMYAKLAF [TUBA1A_Y399_R402L], the enrichment score was active: 11.8.

On to LLKAGYHGVLR [TTPA_Y100], for which the enrichment score was inactive: 1.56.

As to ENAGFYFRVSA [TTN_Y31722_YF], the enrichment score was inactive: 0.627.

Take ENAGFYFRISA [TTN_Y31722_V31725I_YF]: the enrichment score is inactive: 0.381.

TRNREYDDIDD [TTYH2_Y424_D423E]: the enrichment score was inactive: 0.23.

Turning to SAEKAYHEQLS [TUBA1A_Y282], the enrichment score was inactive: 0.673.

For SGPRCYTIAAL [TTR_Y125_R124C], the enrichment score is inactive: 1.23.

With TRNRDYDDIDD [TTYH2_Y424], the enrichment score is inactive: 0.336.

For AGREIYESEKC [TTN_Y4424_D4427E], the enrichment score was inactive: 0.647.

As for SGPRRYTIAAL [TTR_Y125], the enrichment score was inactive: 0.454.

Consider ACCLLYRGDVV [TUBA4A_Y319], for which the enrichment score was inactive: 1.64.

On to SGRRRYTIAAL [TTR_Y125_P122R], for which the enrichment score was inactive: 0.213.

For the molecule RLSVDYGKKSK [TUBA3E_Y161_S162G], the enrichment score was inactive: 0.681.

Another assay concerns the target SHP2 N-SH2 domain wild-type. Described as above. The following applies: peptide library: pTyr-Var.
Consider STKELYEKYMI [TTN_Y32175], for which the enrichment score was inactive: 0.721.

In the case of AVVEPYNSILT [TUBA1A_Y185], the enrichment score is inactive: 0.735.

Turning to LLKAGYQGVLR [TTPA_Y100_H101Q], the enrichment score is inactive: 0.849.

Regarding ACCLLYCGDVV [TUBA4A_Y319_R320C], the enrichment score is inactive: 0.941.

As to EEGEEYGGGGG [TUBA1A_Y451], the enrichment score is inactive: 0.476.

In the case of AGREIYESDKC [TTN_Y4424], the enrichment score was inactive: 0.732.

As for KFDLMYAKLAF [TUBA1A_Y399_R402L], the enrichment score was active: 5.04.

Regarding LLKAGYHGVLR [TTPA_Y100], the enrichment score was inactive: 1.56.

Consider ENAGFYFRVSA [TTN_Y31722_YF], for which the enrichment score was inactive: 0.811.

For ENAGFYFRISA [TTN_Y31722_V31725I_YF], the enrichment score is inactive: 0.614.

In the case of TRNREYDDIDD [TTYH2_Y424_D423E], the enrichment score was inactive: 0.362.

As to SAEKAYHEQLS [TUBA1A_Y282], the enrichment score is inactive: 0.62.

On to SGPRCYTIAAL [TTR_Y125_R124C], for which the enrichment score was inactive: 1.1.

Take TRNRDYDDIDD [TTYH2_Y424]: the enrichment score is inactive: 0.154.

As to AGREIYESEKC [TTN_Y4424_D4427E], the enrichment score is inactive: 0.611.

With SGPRRYTIAAL [TTR_Y125], the enrichment score was inactive: 0.465.

As for ACCLLYRGDVV [TUBA4A_Y319], the enrichment score was inactive: 1.16.

On to SGRRRYTIAAL [TTR_Y125_P122R], for which the enrichment score was inactive: 0.271.

For RLSVDYGKKSK [TUBA3E_Y161_S162G], the enrichment score was inactive: 0.851.
